Source: PubChem BioAssay AID1347120 (National Center for Advancing Translational Sciences (NCATS), 2019)
Hit rate of the full screen: of about 390,000 compounds, about 930 (0.24%) were called active. Inconclusive results, whose numbers are uncertain, are shown with a selection of clear calls. Calls follow the shape of the dose curve; as a rule, active = well fitted activation curve with a large enough effect; inconclusive = small, poorly fitted or top-dose-only effect; inactive = no such curve, though single readings can be large or run the other way. Where the call is inconclusive, the potency comes from a doubtful curve fit.

Test: qHTS for Suppressors of FUS Proteinopathy: Primary screen using FUS-linked yeast assay; also: nearly all actives have a fitted effect of over 55% in size
Conditions: S. cerevisiae FUS-expressing, OD600, 24 h; Potency: growth rescue; series mostly up to 76.6 µM
Method in brief: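 Quantitative HTS measuring growth restoration of FUS-toxic yeast. Galactose-induced cells (OD 0.005) were exposed 24hr at 30C to compounds at several concentrations, then absorbance at 600 nm was recorded.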
Potency is read from the fitted curve at half-maximal effect; tags tell the direction and shape of the fitted curve.

Row | Structure (SMILES) | Potency
1 | Cc1[nH]nc2ncc(C(=O)c3ccccc3O)cc12 | active: 12.6 µM
2 | CCOC(=O)Cc1csc(N/C(=N/S(=O)(=O)c2cc(Br)ccc2OCC)c2ccccc2)n1 | inconclusive: 31.6 µM [activator, partial curve, poor fit]
3 | O=C(NCC(c1ccco1)N1CCN(c2ccccc2)CC1)c1cccs1 (stereo not drawn) | inconclusive: 20 µM [activator, partial curve, poor fit]
4 | Cc1ccc(S(=O)(=O)c2cnc(SCC(=O)Nc3cccc(Cl)c3)nc2N)cc1C | inconclusive: 50.1 µM [activator, single point]
5 | COc1cccc(/C=C/C(=O)OCC(=O)Nc2cccc(S(=O)(=O)NC3=NCCCCC3)c2)c1 | inconclusive: 25.1 µM [activator, partial curve, poor fit]
6 | COc1ccc2oc(-c3ccccc3)c(C(N)=O)c2c1 | inactive
7 | O=C(Nc1cccs1)Nc1ccccc1Cl | inactive
8 | O=S1(=O)c2ccc(N3CCCC3)cc2Oc2ccccc2CN1Cc1cn(Cc2ccc(F)cc2)nn1 | inconclusive: 22.4 µM [activator, partial curve, poor fit]
9 | O=C(CCc1ccccc1)Nc1cc(NC(=O)CCc2ccccc2)cc(C(=O)O)c1 | inactive
10 | CCCCc1ccc(NC(=O)COc2cccc3c(=O)n(C)ccc23)cc1 | inactive
11 | COc1ccc(CC(N)c2csc(NC(=O)C(c3ccccc3)c3ccccc3)n2)cc1 (stereo not drawn) | inconclusive: 50.1 µM [activator, single point]
12 | COc1ccc(CNC(=O)C[C@H]2C[C@H](C(=O)N3CCOCC3)[C@@]3(CCC4CCCC4)c4[nH]c5cc(-c6ccco6)ccc5c4CCN3C2=O)cc1OC | inconclusive: 25.1 µM [activator, single point]
13 | COc1ccc(-c2cc(C(F)(F)F)nc(SCC(=O)NCCc3ccc(OC)c(OC)c3)n2)cc1 | inactive
14 | Cc1cc(C(=O)NNC(=S)NC(=O)/C=C/c2ccccc2Cl)n[nH]1 | active: 12.6 µM
15 | CCc1ccc(NC(=O)N(Cc2ccc(C)cc2)Cc2cccn2-c2nnc(N3CCCC3=O)s2)cc1 | inconclusive: 25.1 µM [activator, single point]
16 | O=C(NCc1ccccc1)C(c1ccccc1)n1c(-c2ccccn2)nc2ccccc21 (stereo not drawn) | inconclusive: 25.1 µM [activator, partial curve, poor fit]
17 | O=C(CSc1nc2ccsc2c(=O)n1Cc1ccccc1F)NCc1ccccc1 | inactive
18 | Cc1ccc(SC[C@H](C)CN2CCC(NC(=O)OCc3ccccc3)CCC2=O)cc1 (stereo partly drawn) | inconclusive: 35.5 µM [activator, single point]
